In PubChem BioAssay AID1508642 (National Center for Advancing Translational Sciences (NCATS), 2021):
Screen size: about 43,000 compounds; about 200 (0.47%) were called active. Another 12% or so got no clear call; they are omitted. Calls follow the shape of the dose curve; as a rule, active = well fitted cell-killing curve with a large enough effect; inconclusive = small, poorly fitted or top-dose-only effect, or effect the other way; inactive = flat fitted curve, though single readings scatter. Some of the results follow.

assay: Cell viability qHTS assay in S16 Pmp22-F2sN cells; conditions: S16 Pmp22-F2sN Schwann cells (luciferase reporters placed in the Pmp22 gene) viability, CellTiter-Glo, 24 h; series mostly up to 57.5 µM; activity change, negative = cytotoxicity: at the top concentration; also: nearly all actives have a fitted effect of over 65% in size
How it was run: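 S16 Schwann cells carrying the Pmp22-F2sN reporter, seeded in 1536-well format, were exposed to library compounds for 24 h at 37C. Viability was read as CellTiter-Glo luminescence after 15 min at room temperature.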
% is scaled to controls: 0 for no effect and ±100 for the full control effect.

| Structure (SMILES) | activity change, negative = cytotoxicity |
| --- | --- |
| CCOC(=O)c1cnc2ccc(C(=O)OC)cc2c1Nc1ccc(OCc2ccccc2Cl)cc1 | inactive: -25.1% |
| CCOC(=O)NNC(=O)C1CCC(C)CC1 (configuration not stated) | inactive: -1.34% |
| CC(C)Oc1ccc(CNC(=O)c2cnc3sc(N4CCCC4)nn3c2=O)cc1 | inactive: 9.61% |
| O=C(NCC(c1ccc2c(c1)OCO2)N1CCN(c2ccccc2)CC1)C(=O)Nc1ccccc1F (configuration not stated) | inactive: -17.2% |
| Cc1oc2c(c1C(=O)NCc1ccccc1F)C1=NCCN1C=N2 | inactive: 3.64% |
| CCOC(=O)c1cc(NC(=O)c2ccc(F)cc2)c(=O)n2c1oc1ccc(Cl)cc12 | inactive: -0.0722% |
| CCCSCCCNC(=O)Cn1c(-c2cccs2)cc2ccccc21 | inactive: 9.34% |
| Cc1cc(O)c(CN2CCN(c3ccccc3)CC2)c2oc(=O)cc(C)c12 | inactive: 1.99% |
| O=C(Nc1c2c(nn1-c1ccc(Cl)cc1)CS(=O)(=O)C2)c1ccc(Br)cc1 | inactive: -1.26% |
| COC(=O)CN1C(C(=O)c2ccccc2)=C(OC(=O)c2ccccc2)c2ccccc2S1(=O)=O | inactive: 14.4% |
| Cc1ccc(NC(=O)CCCn2nc(C)c3c(C)n(-c4ccccc4)nc3c2=O)c(Cl)c1 | inactive: -2.2% |
| COc1ccc(S(=O)(=O)N(CC(=O)Nc2ccc(Br)cc2)Cc2ccccc2)cc1 | inactive: -26.1% |
| Cc1ccc(NC(=O)C2CCCN(S(=O)(=O)c3cccs3)C2)c(C)c1 (configuration not stated) | inactive: 14% |
| CCCCN(CCCC)C(=O)c1c[nH]c2ccc(S(=O)(=O)Nc3cccc(Cl)c3C)cc2c1=O | inactive: -14.1% |
| CCCn1c2ccccc2c2cnn(CC(=O)N3CCCC(C(=O)OCC)C3)c(=O)c21 (configuration not stated) | inactive: 12.8% |
| Cc1ccc(C(=O)Nc2cnc3ccccn3c2=O)cc1 | inactive: 4.47% |
| Cc1nc(-c2ccc(S(=O)(=O)NCc3ccccc3Cl)cc2)co1 | inactive: -1.39% |
| Cc1ccc2c(=O)cc(C(=O)Nc3sc4c(c3C(=O)NCc3cccnc3)CCCC4)oc2c1 | inactive: -22.8% |
| CCOC(=O)c1ccc(NC(=O)C2=C(C)C(=O)OC23CCN(C(C)C)CC3)cc1 | inactive: 23.8% |
| COc1cccc2cc(C(=O)Nc3ccc(C)cc3)c(=O)oc12 | inactive: 6.25% |
| Cc1ccc(CCNC(=O)c2ccc3c(c2)N(Cc2cccc(F)c2)C(=O)c2ccccc2S3)cc1 | inactive: 6.47% |
| CC(C)CCNC(=O)c1ccc2nc(Cc3ccccc3)oc2c1 | inactive: 11.7% |
| Cc1cc(NS(=O)(=O)c2ccc(NC(=O)COc3cc(C)c(Br)cc3C(C)C)cc2)no1 | inactive: -3.54% |
| CCOc1ccc(N(CC)C(=O)Cn2cnc3sc(C)c(S(=O)(=O)N4CCN(c5ncccn5)CC4)c3c2=O)cc1 | inactive: 20.9% |
| COc1ccc(-c2cc(C(F)(F)F)nc(SCC(=O)NC(C)c3ccccc3)n2)cc1 (configuration not stated) | inactive: 27.9% |
| Cc1ccc(CN(C(=O)COc2ccc(F)cc2)C2CCS(=O)(=O)C2)o1 (configuration not stated) | inactive: -3.82% |
| CCn1cc(S(=O)(=O)c2ccccc2)c(=O)c2cc(F)c(F)cc21 | inactive: 1.55% |
